# Results taken from the supplement of paper PMC8728848.
# This is one part of the list.
# B1: SEX4 (Arabidopsis thaliana), Q944A8 (protein)
# chain: TQAMGAVLTYRHELGMNYNFIRPDLIVGSCLQTPEDVDKLRKIGVKTIFCLQQDPDLEYFGVDISSIQAYAKKYSDIQHIRCEIRDFDAFDLRMRLPAVVGTLYKAVKRNGGVTYVHCTAGMGRAPAVALTYMFWVQGYKLMEAHKLLMSKRSCFPKLDAIRNATIDILTGLKRKTVTLTLKDKGFSRVEISGLDIGWGQRIPLTLGKGTGFWILKRELPEGQFEYKYIIDGEWTHNEAEPFIGPNKDGHTNNYAKVVDDPTSVDGTTRERLSSEDPELLEEERSKLIQFLETCSEAEV
# Key:
# Experiment in all cases: glycan array binding signal (z-score within array); higher = stronger binding
# Conditions in all cases: glycan notation: IUPAC condensed, linker removed
# [1] = target: Fuc(a1-2)Gal
# Procedure, shortened: (§1)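 From the Consortium for Functional Glycomics database, 3228 arrays were curated, keeping only those whose protein sequence was available. Binding is given as a within-array Z-score averaged across arrays sharing a protein sequence and across linkers. Negative Z-scores can be read as non-binding.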
# [2] = target: Fuc(a1-2)Gal(b1-3)GalNAc
# Procedure, shortened: as §1
# [3] = target: Fuc(a1-2)Gal(b1-3)GalNAc(a1-3)[Fuc(a1-2)]Gal(b1-4)Glc
# Procedure, shortened: as §1
# [4] = target: Fuc(a1-2)Gal(b1-3)GalNAc(a1-3)[Fuc(a1-2)]Gal(b1-4)GlcNAc
# Procedure, shortened: as §1
# [5] = target: Fuc(a1-2)Gal(b1-3)GalNAc(b1-3)Gal
# Procedure, shortened: as §1
# [6] = target: Fuc(a1-2)Gal(b1-3)GalNAc(b1-3)Gal(a1-4)Gal(b1-4)Glc
# Procedure, shortened: as §1
# [7] = target: Fuc(a1-2)Gal(b1-3)GalNAc(b1-4)[Neu5Ac(a2-3)]Gal(b1-4)Glc
# Procedure, shortened: as §1
# [8] = target: Fuc(a1-2)Gal(b1-3)GlcNAc
# Procedure, shortened: as §1
# [9] = target: Fuc(a1-2)Gal(b1-3)GlcNAc(b1-2)Man(a1-3)[Fuc(a1-2)Gal(b1-3)GlcNAc(b1-2)Man(a1-6)]Man(b1-4)GlcNAc(b1-4)GlcNAc
# Procedure, shortened: as §1
# [10] = target: Fuc(a1-2)Gal(b1-3)GlcNAc(b1-2)Man(a1-3)[Fuc(a1-2)Gal(b1-3)GlcNAc(b1-2)Man(a1-6)]Man(b1-4)GlcNAc(b1-4)[Fuc(a1-6)]GlcNAc
# Procedure, shortened: as §1
# [11] = target: Fuc(a1-2)Gal(b1-3)GlcNAc(b1-3)Gal(b1-4)Glc
# Procedure, shortened: as §1
# [12] = target: Fuc(a1-2)Gal(b1-3)GlcNAc(b1-3)GalNAc
# Procedure, shortened: as §1
# [13] = target: Fuc(a1-2)Gal(b1-3)GlcNAc(b1-3)[Fuc(a1-3)[Gal(b1-4)]GlcNAc(b1-6)]Gal(b1-4)Glc
# Procedure, shortened: as §1
# [14] = target: Fuc(a1-2)Gal(b1-3)GlcNAc(b1-3)[Gal(b1-4)GlcNAc(b1-6)]Gal(b1-4)Glc
# Procedure, shortened: as §1
# [15] = target: Fuc(a1-2)Gal(b1-3)[Fuc(a1-4)]GlcNAc
# Procedure, shortened: as §1
# [16] = target: Fuc(a1-2)Gal(b1-3)[Fuc(a1-4)]GlcNAc(b1-2)Man(a1-3)[Fuc(a1-2)Gal(b1-3)[Fuc(a1-4)]GlcNAc(b1-2)Man(a1-6)]Man(b1-4)GlcNAc(b1-4)GlcNAc
# Procedure, shortened: as §1
# [17] = target: Fuc(a1-2)Gal(b1-3)[Fuc(a1-4)]GlcNAc(b1-3)[Fuc(a1-3)[Gal(b1-4)]GlcNAc(b1-6)]Gal(b1-4)Glc
# Procedure, shortened: as §1
# [18] = target: Fuc(a1-2)Gal(b1-3)[Fuc(a1-4)]GlcNAc(b1-3)[Gal(b1-4)GlcNAc(b1-6)]Gal(b1-4)Glc
# Procedure, shortened: as §1
# [19] = target: Fuc(a1-2)Gal(b1-4)Glc
# Procedure, shortened: as §1
# [20] = target: Fuc(a1-2)Gal(b1-4)Glc6S
# Procedure, shortened: as §1
# [21] = target: Fuc(a1-2)Gal(b1-4)GlcNAc
# Procedure, shortened: as §1
# [22] = target: Fuc(a1-2)Gal(b1-4)GlcNAc(b1-2)Man(a1-3)[Fuc(a1-2)Gal(b1-4)GlcNAc(b1-2)Man(a1-6)]Man(b1-4)GlcNAc(b1-4)GlcNAc
# Procedure, shortened: as §1
# [23] = target: Fuc(a1-2)Gal(b1-4)GlcNAc(b1-2)Man(a1-3)[Fuc(a1-2)Gal(b1-4)GlcNAc(b1-2)Man(a1-6)]Man(b1-4)GlcNAc(b1-4)[Fuc(a1-6)]GlcNAc
# Procedure, shortened: as §1
# [24] = target: Fuc(a1-2)Gal(b1-4)GlcNAc(b1-2)[Fuc(a1-2)Gal(b1-4)GlcNAc(b1-4)]Man(a1-3)[Fuc(a1-2)Gal(b1-4)GlcNAc(b1-2)Man(a1-6)]Man(b1-4)GlcNAc(b1-4)GlcNAc
# Procedure, shortened: as §1
# [25] = target: Fuc(a1-2)Gal(b1-4)GlcNAc(b1-3)Gal(b1-4)GlcNAc
# Procedure, shortened: as §1
# [26] = target: Fuc(a1-2)Gal(b1-4)GlcNAc(b1-3)Gal(b1-4)GlcNAc(b1-3)Gal(b1-4)GlcNAc
# Procedure, shortened: as §1
# [27] = target: Fuc(a1-2)Gal(b1-4)GlcNAc(b1-3)GalNAc
# Procedure, shortened: as §1
# [28] = target: Fuc(a1-2)Gal(b1-4)GlcNAc6S
# Procedure, shortened: as §1
# [29] = target: Fuc(a1-2)Gal(b1-4)[Fuc(a1-3)]GlcNAc
# Procedure, shortened: as §1
# [30] = target: Fuc(a1-2)Gal(b1-4)[Fuc(a1-3)]GlcNAc(b1-2)Man(a1-3)[Fuc(a1-2)Gal(b1-4)[Fuc(a1-3)]GlcNAc(b1-2)Man(a1-6)]Man(b1-4)GlcNAc(b1-4)GlcNAc
# Procedure, shortened: as §1
# [31] = target: Fuc(a1-2)Gal(b1-4)[Fuc(a1-3)]GlcNAc(b1-2)[Fuc(a1-2)Gal(b1-4)[Fuc(a1-3)]GlcNAc(b1-4)]Man(a1-3)[Fuc(a1-2)Gal(b1-4)[Fuc(a1-3)]GlcNAc(b1-2)Man(a1-6)]Man(b1-4)GlcNAc(b1-4)GlcNAc
# Procedure, shortened: as §1
# [32] = target: Fuc(a1-2)Gal(b1-4)[Fuc(a1-3)]GlcNAc(b1-3)Gal(b1-4)[Fuc(a1-3)]GlcNAc
# Procedure, shortened: as §1
# [33] = target: Fuc(a1-2)Gal(b1-4)[Fuc(a1-3)]GlcNAc(b1-3)Gal(b1-4)[Fuc(a1-3)]GlcNAc(b1-3)Gal(b1-4)[Fuc(a1-3)]GlcNAc
# Procedure, shortened: as §1
# [34] = target: Fuc(a1-2)Gal(b1-4)[Fuc(a1-3)]GlcNAc(b1-3)GalNAc
# Procedure, shortened: as §1
# [35] = target: Fuc(a1-2)Gal6S(b1-4)Glc
# Procedure, shortened: as §1
# [36] = target: Fuc(a1-2)Gal6S(b1-4)Glc6S
# Procedure, shortened: as §1
# [37] = target: Fuc(a1-2)Gal6S(b1-4)GlcNAc
# Procedure, shortened: as §1
binder,measurement,setting,value
B1,glycan array binding signal (z-score),[1],-0.521
same,glycan array binding signal (z-score),[2],-0.408
same,glycan array binding signal (z-score),[3],-0.19
same,glycan array binding signal (z-score),[4],-0.41
same,glycan array binding signal (z-score),[5],-0.291
same,glycan array binding signal (z-score),[6],0.173
same,glycan array binding signal (z-score),[7],0.024
same,glycan array binding signal (z-score),[8],-0.1
same,glycan array binding signal (z-score),[9],-0.14
same,glycan array binding signal (z-score),[10],-0.277
same,glycan array binding signal (z-score),[11],0.775
same,glycan array binding signal (z-score),[12],0.12
same,glycan array binding signal (z-score),[13],-0.488
same,glycan array binding signal (z-score),[14],-0.216
same,glycan array binding signal (z-score),[15],-0.43
same,glycan array binding signal (z-score),[16],1.54
same,glycan array binding signal (z-score),[17],-0.234
same,glycan array binding signal (z-score),[18],-0.056
same,glycan array binding signal (z-score),[19],-0.349
same,glycan array binding signal (z-score),[20],-0.195
same,glycan array binding signal (z-score),[21],-0.484
same,glycan array binding signal (z-score),[22],-0.243
same,glycan array binding signal (z-score),[23],0.464
same,glycan array binding signal (z-score),[24],3.41
same,glycan array binding signal (z-score),[25],-0.149
same,glycan array binding signal (z-score),[26],0.56
same,glycan array binding signal (z-score),[27],0.098
same,glycan array binding signal (z-score),[28],-0.299
same,glycan array binding signal (z-score),[29],0.072
same,glycan array binding signal (z-score),[30],0.135
same,glycan array binding signal (z-score),[31],0.194
same,glycan array binding signal (z-score),[32],-0.066
same,glycan array binding signal (z-score),[33],1.02
same,glycan array binding signal (z-score),[34],1.95
same,glycan array binding signal (z-score),[35],-0.478
same,glycan array binding signal (z-score),[36],-0.294
same,glycan array binding signal (z-score),[37],-0.376
